# Test results as given in PubChem BioAssay AID686978 (National Center for Advancing Translational Sciences (NCATS), 2013).
# Where “and” joins values, the source holds several entries; their conditions need not be identical. Identical values can stand only once. The whole screen tested about 420,000 compounds, of which about 64,000 (15%) were called active. Inconclusive results, whose numbers are uncertain, are shown with a selection of clear calls. Calls follow the shape of the dose curve; as a rule, active = well fitted inhibition curve with a large enough effect; inconclusive = small, poorly fitted or top-dose-only effect; inactive = flat fitted curve, though single readings scatter. Potencies beside an inconclusive call are fits to weak or partial responses and may not hold up.
# Experiment: qHTS for Inhibitors of human tyrosyl-DNA phosphodiesterase 1 (TDP1): qHTS in cells in absence of CPT; also: nearly all actives have a fitted effect of over 55% in size
# Conditions: DT40 Tdp1-/- hTDP1 cells, no CPT, ATP luminescence, 48 h; activity change, negative = growth inhibition: at 46.2 µM (top of the series)
# Method in brief: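 Stably hTDP1-transfected Tdp1-null chicken DT40 cells were treated with library compounds minus camptothecin and grown for at least 48 hr at 37 °C, after which cellular ATP was quantified by luminescence.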
# % is scaled to controls: 0 for no effect and ±100 for the full control effect; potency is read from the fitted curve at half-maximal effect; tags tell the direction and shape of the fitted curve.
Structure (SMILES),Potency,"activity change, negative = growth inhibition"
Cc1ccc(/C=C(\NC(=O)c2ccccc2)C(=O)OCc2ccccc2)cc1,"inconclusive: 29.1 µM [inhibitor, single point]",
COC(=O)c1cc2oc3ccccc3c2n1CC(=O)Nc1ccc(C)cc1Cl,,inactive: -15.8%
CCc1cccc(-n2c(SCC(=O)c3c(N)n(C4CC4)c(=O)[nH]c3=O)nnc2N2CCOCC2)c1,,inactive: 1.57%
FC(F)Oc1ccccc1/C=N/n1cnc2ccccc21,active: 18.4 µM,
COc1cc(/C=N/NC(=O)c2ccc3c(c2)OCCO3)cc(Br)c1O,"inconclusive: 14.6 µM [inhibitor, partial curve]",
CCOc1cc(C(=S)N2CCOCC2)ccc1OS(=O)(=O)c1ccc(C)cc1,"inconclusive: 25.9 µM [inhibitor, single point]",
Cc1ccc(CNC(=O)C2CC(c3cccc([N+](=O)[O-])c3)=NO2)o1 (stereo not given),"inconclusive: 7.31 µM [inhibitor, single point]",
CCOC(=O)N1CCN(C(=O)c2cc3c(=O)n(C)c4ccccc4c3n2C)CC1,active: 16.4 µM,
O=C(CCCN1C(=O)/C(=C/c2ccc(F)cc2)SC1=S)Nc1ccc(C(=O)O)cc1,"inconclusive: 20.6 µM [inhibitor, single point]",
CCOC(=O)CCSCC(=O)N1N=C(c2cccs2)CC1c1ccc(C)cc1 (stereo not given),"inconclusive: 29.1 µM [inhibitor, single point]",
COc1ccccc1OC(C)C(=O)Nc1ccccc1C(=O)NCC1CCCO1 (stereo not given),,inactive: -22.5%
COc1cc2[nH]c(C(=O)N(C)Cc3ccccc3)cc2c(OC)c1OC,,inactive: -28.8%
CCCNC(=O)OCCC12CC3CC(CC(C3)C1)C2,"inconclusive: 29.1 µM [inhibitor, single point]",
Cc1ccc(SCC(=O)Nc2cc(S(=O)(=O)N3CCCCC3)ccc2C)cc1,"inconclusive: 23.1 µM [inhibitor, single point]",
Nc1cc(C(F)(F)F)ccc1Nc1ccccc1,"inconclusive: 18.4 µM [inhibitor, single point]",
O=C(CCn1c(=O)c2ccccc2n(Cc2ccc(Cl)cc2)c1=O)NCc1ccc2c(c1)OCO2,"inconclusive: 6.51 µM [inhibitor, partial curve]",
COc1ccc(N2CCN(C(=O)C(=O)c3cn(CC(=O)N4CCCC4)c4ccccc34)CC2)cc1,"inconclusive: 29.1 µM [inhibitor, single point]",
CC(=O)C1=NN(c2ccccc2)C2(S1)S/C(=C\c1ccccc1)C(=O)N2c1ccccc1 (stereo not given),"inconclusive: 23.1 µM [inhibitor, partial curve]",
CC(C)NC(=S)NC(=O)/C=C/c1ccc(F)cc1,active: 14.6 µM,
CC(C)OC1=CC(=O)OC(c2cccc(Cl)c2)C1 (stereo not given),,inactive: -12.9%
CCOC(=O)c1[nH]c(C)c(C(=O)NCCc2ccccc2)c1C,,inactive: -11.7%
CN(c1ccc(Cl)cc1)S(=O)(=O)c1nnc(NC(=O)c2ccco2)s1,"inactive and inconclusive: 18.4 µM [inhibitor, single point]",
CC1=NNC(=O)/C1=C\c1cn(-c2ccccc2)nc1-c1cccs1,active: 2.59 µM,
CCc1ccc(NC(=O)c2cc(CN3CCOCC3)on2)cc1,"inconclusive: 29.1 µM [inhibitor, single point]",

Structure (SMILES),Potency,"activity change, negative = growth inhibition"
CCOc1cc(/C=N/NC(=O)CSc2nncn2C)ccc1OCc1ccccc1,"inconclusive: 20.6 µM [inhibitor, single point]",
O=C(O)CC1S/C(=N/N=C/c2ccc([N+](=O)[O-])cc2)N(c2ccc(O)cc2)C1=O (stereo not given),,inactive: -15%
CCn1cc(C(=O)NC2CC(C)(C)Cc3c2cnn3-c2cccc(F)c2)cn1 (stereo not given),active: 20.6 µM,
O=C(O)Cn1c(SCCOc2ccccc2F)nc2ccccc21,active: 16.4 µM,
c1coc(-c2nnc(-c3ccco3)nn2)c1,active: 11.6 µM,
O=C(NCc1csc2ccccc12)Nc1cc(Cl)cc(Cl)c1,"inconclusive: 29.1 µM [inhibitor, single point]",
Cc1nc(N2CCOCC2)c2c(C)c(C(=O)Nc3ccc(F)cc3F)sc2n1,"inconclusive: 29.1 µM [inhibitor, single point]",
COC(=O)C1=CN(C(C)c2ccccc2)C=C(C(=O)OC)C1c1cc(OC)c(OC)c(OC)c1 (stereo not given),"inconclusive: 18.4 µM [inhibitor, single point]",
Cc1ccc(C(=O)OC(C)C(=O)N(C)C2CCCCC2)cc1S(=O)(=O)N1CCCCC1 (stereo not given),active: 23.1 µM,
COc1c(C)cc(C(O)c2ncc(-c3ccccc3)[nH]2)cc1C (stereo not given),"inconclusive: 25.9 µM [inhibitor, single point]",
CN(CCOc1ccc(Cl)cc1)C(=O)c1cc(-c2ccco2)nc2ccccc12,"inconclusive: 29.1 µM [inhibitor, single point]",
COc1ccc(C(=O)CCC(=O)N2CCN(c3ccccc3)CC2)cc1,"inconclusive: 16.4 µM [inhibitor, single point]",
CCCCNc1c(-c2cccc(SC3CCCCC3)c2)nc2ccc(Cl)cn12,"inconclusive: 20.6 µM [inhibitor, single point] and inconclusive: 29.1 µM [inhibitor, single point]",
C=CCNC(=S)N1CCN(c2cc3c(cc2F)c(=O)c(C(=O)O)cn3CC)CC1,"inconclusive: 18.4 µM [inhibitor, single point]",
COc1ccc(C)cc1NC(=O)CNc1ccccc1CN(C)C1CCCCC1,"inconclusive: 20.6 µM [inhibitor, single point]",
Cc1cccc(NC(=O)NC2CCCc3ccccc32)c1 (stereo not given),,inactive: -15%
COc1ccc(N2CCN(C(c3cc(OC)ccc3OC)c3nnnn3Cc3ccco3)CC2)cc1 (stereo not given),"inconclusive: 20.6 µM [inhibitor, single point]",
FC(F)(F)c1cccc(NC(=S)NCc2ccccc2)c1,active: 23.1 µM,
O=C(c1cccn2c(=O)c3ccccc3nc12)N1CCN(Cc2ccc3c(c2)OCO3)CC1,"inconclusive: 29.1 µM [inhibitor, partial curve]",
O=C(CSc1ccc2nnc(-c3ccccn3)n2n1)Nc1ccc2c(c1)OCO2,,inactive: -21.1%
O=c1cc(-c2ccc(O)cc2)oc2cc(OC3OC(CO)C(O)C(O)[C@H]3O[C@@H]3OC[C@@](O)(CO)C3O)cc(O)c12 (stereo not given in full),,inactive: -1.17%
COc1ccccc1CN(C)C(=O)c1ccccc1Sc1ccccc1C#N,"inconclusive: 18.4 µM [inhibitor, single point]",
CCC(=O)Nc1c(C(=O)N2CCN(c3ccccn3)CC2)cnn1-c1ccc(Cl)cc1,"inconclusive: 25.9 µM [inhibitor, single point]",
CCOC(=O)C1C(=O)CC(C)(O)C(C(=O)OCC)C1c1cc(Br)ccc1OC (stereo not given),"inconclusive: 29.1 µM [inhibitor, single point]",

Structure (SMILES),Potency,"activity change, negative = growth inhibition"
CCOC(=O)C1=C(CN(C)Cc2ccccc2)NC(=O)NC1c1ccc(OC(C)C)cc1 (stereo not given),active: 16.4 µM,
O=c1c2c(nc3c(-c4cccc(Br)c4)c[nH]n13)CCCC2,,inactive: -103%
COc1cccc(OC)c1C(=O)NC(=S)Nc1ccc2c(c1)OCCO2,"inconclusive: 20.6 µM [inhibitor, single point]",
CCCNC(=O)c1cc(C2CCCN(S(=O)(=O)c3cccc4cccnc34)C2)on1 (stereo not given),"inconclusive: 23.1 µM [inhibitor, partial curve]",
Cc1cc(C)cc(NC(=O)C2CCCN2S(=O)(=O)c2cccc3cccnc23)c1 (stereo not given),"inconclusive: 29.1 µM [inhibitor, single point]",
O=C(COc1cccnc1[N+](=O)[O-])Nc1cccc2ccccc12,,inactive: -1.95%
Cc1ccc(C)c(Oc2c(C(F)(F)F)oc3c(CN4CCN(C)CC4)c(O)ccc3c2=O)c1,"inconclusive: 29.1 µM [inhibitor, single point]",
COc1cc(NS(=O)(=O)c2ccc(NC(=O)c3ccc([N+](=O)[O-])cc3)cc2)ncn1,,inactive: -9.31%
Cc1ccc(C)c(C(=O)CSc2n[nH]c(C)n2)c1,,inconclusive: -32.5% [inhibitor]
CCc1noc(C)c1C(=O)Nc1nc(-c2ccccc2)cs1,"inconclusive: 16.4 µM [inhibitor, single point]",
COc1ccc(C)cc1NC(=O)Cc1ccc(NC(=O)N2CCCCc3ccccc32)cc1,"inconclusive: 18.4 µM [inhibitor, single point]",
CC(C)c1ccc(Nc2c(-c3ccsc3)nc3ccc(Cl)cn23)cc1,"inconclusive: 6.51 µM [inhibitor, single point]",
COc1ccc(C(=O)NCc2ccccc2OC)cc1,,inactive: -11.8%
COc1ccc(C)cc1S(=O)(=O)N1CCCCCC1,,inactive: -11.2%
CC1CCN(C(c2ccccc2)c2nnnn2C(C)(C)C)CC1 (stereo not given),"inconclusive: 25.9 µM [inhibitor, single point]",
CCn1c(=O)c(C(=O)NNC(=O)c2ccccc2Br)c(O)c2ccccc21,"inconclusive: 29.1 µM [inhibitor, single point]",
Nc1nnc(SCc2nc3scc(-c4ccccc4)c3c(=O)[nH]2)s1,active: 18.4 µM,
CC1CN(C(C)C)C(C)CC1OC(=O)c1ccccc1 (stereo not given),,inactive: 3.39%
COc1cc(/C=C/C(=O)N(C)c2ccccc2C(=O)O)cc(OC)c1OC,,inactive: -1.66%
Cc1ccc(S(=O)(=O)NCC(c2ccccc2)N2CCN(c3ccc(F)cc3)CC2)cc1 (stereo not given),"inconclusive: 23.1 µM [inhibitor, single point]",
FC(F)(F)c1nnc2c3ccccc3c(Cl)nn12,active: 6.51 µM,
C[C@@H]1C[C@H]2[C@@H]3CCC4=CC(=O)C=C[C@]4(C)[C@@]3(F)[C@@H](O)C[C@]2(C)[C@H]1C(=O)CO,"inconclusive: 26.6 µM [inhibitor, partial curve, poor fit] and inconclusive: 23.1 µM [inhibitor, partial curve]",
